From PubChem BioAssay AID1768 (National Center for Advancing Translational Sciences (NCATS), 2009)
The campaign covered roughly 270,000 compounds. About 620 (0.23%) were called active. The shares of active, inactive and inconclusive entries below differ from those in the screen. Calls come from the whole dose curve; as a rule, active = well fitted inhibition curve with a large enough effect in the polarisation, with a control signal flat (not every such curve was filed as active); inconclusive = small, poorly fitted or top-dose-only effect, or effect the other way, or a change in a side signal; inactive = no such curve, though single readings can be large or run the other way; the % refers to the polarisation. Potencies beside an inconclusive call are fits to weak or partial responses and may not hold up. “Side channel” marks fits to a control or component signal instead of the main read-out.

The compounds below were run against Menin (Homo sapiens) (UniProt O00255) (assay: qHTS Assay for Inhibitors Targeting the Menin-MLL Interaction in MLL Related Leukemias: Competition With Texas Red Labeled MLL-derived Mutant Peptide). Settings: fluorescence polarization; series mostly up to 61.6 µM.
Sequence of UniProt O00255 (O00255 whole entry, looked up): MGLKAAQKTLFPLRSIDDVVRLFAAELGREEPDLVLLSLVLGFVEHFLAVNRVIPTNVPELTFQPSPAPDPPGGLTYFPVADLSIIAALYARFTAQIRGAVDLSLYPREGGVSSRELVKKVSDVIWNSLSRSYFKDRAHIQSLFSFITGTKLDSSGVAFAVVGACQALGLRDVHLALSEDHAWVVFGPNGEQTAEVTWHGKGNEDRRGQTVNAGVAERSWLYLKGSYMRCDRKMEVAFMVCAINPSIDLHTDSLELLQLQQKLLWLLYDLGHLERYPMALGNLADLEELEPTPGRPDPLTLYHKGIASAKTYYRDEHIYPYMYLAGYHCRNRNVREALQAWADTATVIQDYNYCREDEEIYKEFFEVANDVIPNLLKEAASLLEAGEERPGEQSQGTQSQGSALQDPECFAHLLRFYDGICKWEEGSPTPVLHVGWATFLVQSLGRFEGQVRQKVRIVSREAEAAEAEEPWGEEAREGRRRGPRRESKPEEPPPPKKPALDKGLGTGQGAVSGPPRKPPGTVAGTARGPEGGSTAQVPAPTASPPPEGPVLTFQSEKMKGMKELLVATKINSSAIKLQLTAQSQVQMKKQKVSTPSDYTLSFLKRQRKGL
Potency is the fitted concentration of half-maximal effect; tags give direction and shape of the fitted curve or compound fluorescence and quenching.

Potency, inactive:
N#CC(C(=O)NCc1ccccc1)c1nc2ccccc2nc1N1CCCC1 (stereo not given)
CCOc1ccc(C=C2SC(=O)N(CCN)C2=O)cc1
COc1ccc2c(CC(=O)NCCN3C(=O)S/C(=C\c4cccnc4)C3=O)coc2c1
O=C1c2cccc3c2[C@@H](CCC3)CN1[C@@H]1CN2CCC1CC2
Cc1nn(-c2ccccn2)c2nc(-c3cccs3)cc(C(=O)NCc3ccco3)c12
COCC(=O)N1CCC2(CCCN(C(=O)Nc3ccc(OC)cc3)C2)CC1

Potency, inconclusive:
COc1ccc(-c2nc(N)nc(C)c2Oc2ccccc2Br)c(O)c1 15.8 µM [quencher, side channel, partial curve]
COc1ccccc1NC(=O)CC1C(=O)NCCN1C(=O)Nc1ccc(Cl)c(Cl)c1 (stereo not given) 22.4 µM [quencher, side channel, single point]
COc1ccc(-n2c(=S)[nH]c3cc(C(=O)NC4CCCCC4)ccc3c2=O)c(OC)c1 39.8 µM [fluorescent, side channel, single point]
O=C(Nc1ccc(OCc2ccccc2)cc1)c1cccc([N+](=O)[O-])c1 2.82 µM [quencher, side channel, full curve, poor fit]
Cc1cccc(N2CCN(C(=O)c3c(C)nn(Cc4ccccc4Cl)c3C)CC2)c1C 6.31 µM [fluorescent, side channel, partial curve]
CC(Oc1ccc(Cl)cc1Cl)c1ccnc2nc(N3CCOCC3)nn12 (stereo not given) 12.6 µM [fluorescent, side channel, partial curve]
COC(=O)c1[nH]c2cc(OC)c(OC)cc2c1/C=N/Nc1ccccc1 6.31 µM [quencher, side channel, partial curve]
CCCNC(=O)C1CCN(S(=O)(=O)c2c(C)noc2/C=C\c2ccc(OC)cc2)CC1 25.1 µM [fluorescent, side channel, single point]
CCOc1ccc(OCc2cccc(C(=O)N3CCCCCC3)c2)cc1 7.94 µM [fluorescent, side channel, partial curve]
COc1ccc(/C=C2\SC(N)=NC2=O)cc1Br 31.6 µM [quencher, single point]
O=S(=O)(Nc1cc(Sc2cccc3cccnc23)c(O)c2ccccc12)c1ccc(F)cc1 28.2 µM [quencher, side channel, partial curve]
COc1ccccc1CNCc1cccc(Oc2ccccc2)c1 10 µM [fluorescent, side channel, partial curve]
N#Cc1c(-c2ccccc2)nc(SCc2cccc(C(F)(F)F)c2)[nH]c1=O 15.8 µM [quencher, side channel, partial curve]
Cc1cccc(-n2ncc3c(Nc4ccc(F)cc4)ncnc32)c1 14.1 µM [quencher, partial curve]
CCn1c(COc2ccccc2)nnc1SCC(=O)CC(=O)Nc1ccccc1OC 2 µM [quencher, side channel, full curve, poor fit]
C=CCNC(=S)N/N=C/c1ccc(-c2ccc(OC)cc2)o1 25.1 µM [quencher, partial curve]
Cc1ccc(/C=c2\sc3nc(-c4cccs4)nn3c2=O)o1 31.6 µM [quencher, side channel, single point]
Cn1c(=O)c2ncn(CC(=O)Nc3ccc4c5c(cccc35)CC4)c2n(C)c1=O 25.1 µM [quencher, side channel, single point]
O=C(CSc1ccc(/C=N/NC(=O)c2cccc(F)c2)o1)Nc1ccccc1 25.1 µM [quencher, side channel, single point]
COc1n[nH]c(C(=O)Nc2cc(Cl)ccc2Cl)c1[N+](=O)[O-] 20 µM [quencher, side channel, partial curve]
N#CCC(=O)Nc1ccc(C(=O)OCc2ccccc2Oc2ccccc2)cc1 14.1 µM [quencher, side channel, partial curve]
Cc1ccc(-c2csc(NC(=O)c3ccno3)n2)cc1 14.1 µM [quencher, side channel, partial curve]
Nc1ccc2c(c1)C(=O)C(=O)c1ccccc1-2 3.16 µM [quencher, side channel, full curve]
CC1(C)CC(=O)C2=C(C1)Nc1[nH]n(-c3ccccc3)c(=O)c1C2c1ccc2c(c1)OCO2 (stereo not given) 22.4 µM [quencher, side channel, single point]
O=C(N/N=C/c1ccc(Br)s1)c1ccc([N+](=O)[O-])cc1 11.2 µM [quencher, side channel, partial curve]
Cc1cc(-c2nn(-c3ccccc3F)cc2CN2CCC(O)CC2)c(C)s1 10 µM [inhibitor, partial curve]
Cc1nonc1OCCNCc1c(C(=O)N2CCCCCCC2)nc2ccc(Cl)cn12 2.82 µM [fluorescent, side channel, full curve]
CCC1Oc2ccc(C)cc2N(CC(=O)NCCN2C(C)CCCC2C)C1=O (stereo not given) 39.8 µM [inhibitor, single point]
CCOC12NC(=O)CC(=O)N1C(c1ccccc1)=CS2 (stereo not given) 31.6 µM [quencher, side channel, single point]
C=CCn1c(=NC(=O)c2cc(-c3cccs3)nc3ccccc23)sc2cc(S(N)(=O)=O)ccc21 1.12 µM [quencher, side channel, full curve, poor fit]
Cn1c(SCC(=O)N2CCN(S(=O)(=O)c3ccccc3)CC2)nc2ccccc21 7.08 µM [inhibitor, single point]
O=C(Cn1c(COc2ccccc2)nc2ccccc21)Nc1cc(Cl)cc(Cl)c1 7.08 µM [quencher, side channel, partial curve, poor fit]
Cc1ccc(C)c(S(=O)(=O)Nc2ccc3oc(C)c(C(=O)O)c3c2)c1 31.6 µM [quencher, side channel, single point]
C=CC(=O)NC(C)(C)CCN1CCOCC1 3.55 µM [fluorescent, side channel, partial curve]
CCn1c(=O)c(=O)[nH]c2cc(C(=O)NC(C)c3ccc(S(N)(=O)=O)cc3)ccc21 (stereo not given) 31.6 µM [fluorescent, side channel, partial curve]
Nc1nc2ccc(C(=O)NCCOC(=O)C3CCCCC3)cc2s1 31.6 µM [quencher, side channel, partial curve]
COC(=O)c1ccc(-c2ccc(C(c3c(C)[nH][nH]c3=O)c3c(C)[nH][nH]c3=O)o2)cc1 14.1 µM [quencher, side channel, partial curve]
Cc1ccc(S(=O)(=O)Nc2ccc(NC(=O)c3cccs3)cc2)cc1 28.2 µM [quencher, side channel, partial curve]
S=C(Nc1ccc(-c2nc3ccccc3[nH]2)cc1)Nc1cccnc1 28.2 µM [quencher, side channel, partial curve]
CCCOc1ccc(C2C(=O)N(C3CCCCCC3)CC(=O)N2Cc2ccco2)cc1OC (stereo not given) 22.4 µM [fluorescent, side channel, single point]
COc1ccccc1Nc1ccc(NC(=O)c2cccc([N+](=O)[O-])c2C)cc1 10 µM [quencher, side channel, partial curve]
COc1cccc(NC(=O)Nc2cccn(Cc3ccccc3)c2=O)c1 20 µM [quencher, side channel, partial curve]
O=C(Cc1ccccc1)N/N=C/c1cc(Br)cc(Cl)c1O 22.4 µM [quencher, side channel, partial curve]
CCOC(=O)C1=C(C)N=c2s/c(=C/c3ccc(OCC(=O)O)cc3)c(=O)n2C1c1ccc(OC)cc1OC (stereo not given) 39.8 µM [quencher, side channel, single point]
O=C(c1ccccc1F)N1C(=O)c2cccc3cccc1c23 39.8 µM [inhibitor, single point]
N#Cc1c(=O)c2nc(NCCCO)ncc2n2c(=O)c3ccccc3[nH]c12 28.2 µM [inhibitor, partial curve]
CC1=C(C(=O)OC(C)C)C(c2cccc([N+](=O)[O-])c2)n2c(cc(=O)[nH]c2=S)N1 (stereo not given) 17.8 µM [quencher, side channel, single point]
O=C(Nc1nccs1)c1ccc(S(=O)(=O)N2CCOCC2)cc1 25.1 µM [quencher, side channel, single point]
CCCOC(=S)NC(=O)c1sc2ccccc2c1Cl 25.1 µM [quencher, side channel, single point]
